Among all 310,000 compounds or so, about 2,200 (0.71%) showed an effect of 50% or more. Effects have a minus sign here. The list shows a part of the results.

The target in this experiment is human ether-à-go-go-related gene (hERG) potassium channel (human, UniProt Q12809). Put plainly: primary screen, population patch clamp on CHO cells stably expressing hERG.
human ether-à-go-go-related gene (hERG) potassium channel, sequence (Q12809 whole entry, looked up): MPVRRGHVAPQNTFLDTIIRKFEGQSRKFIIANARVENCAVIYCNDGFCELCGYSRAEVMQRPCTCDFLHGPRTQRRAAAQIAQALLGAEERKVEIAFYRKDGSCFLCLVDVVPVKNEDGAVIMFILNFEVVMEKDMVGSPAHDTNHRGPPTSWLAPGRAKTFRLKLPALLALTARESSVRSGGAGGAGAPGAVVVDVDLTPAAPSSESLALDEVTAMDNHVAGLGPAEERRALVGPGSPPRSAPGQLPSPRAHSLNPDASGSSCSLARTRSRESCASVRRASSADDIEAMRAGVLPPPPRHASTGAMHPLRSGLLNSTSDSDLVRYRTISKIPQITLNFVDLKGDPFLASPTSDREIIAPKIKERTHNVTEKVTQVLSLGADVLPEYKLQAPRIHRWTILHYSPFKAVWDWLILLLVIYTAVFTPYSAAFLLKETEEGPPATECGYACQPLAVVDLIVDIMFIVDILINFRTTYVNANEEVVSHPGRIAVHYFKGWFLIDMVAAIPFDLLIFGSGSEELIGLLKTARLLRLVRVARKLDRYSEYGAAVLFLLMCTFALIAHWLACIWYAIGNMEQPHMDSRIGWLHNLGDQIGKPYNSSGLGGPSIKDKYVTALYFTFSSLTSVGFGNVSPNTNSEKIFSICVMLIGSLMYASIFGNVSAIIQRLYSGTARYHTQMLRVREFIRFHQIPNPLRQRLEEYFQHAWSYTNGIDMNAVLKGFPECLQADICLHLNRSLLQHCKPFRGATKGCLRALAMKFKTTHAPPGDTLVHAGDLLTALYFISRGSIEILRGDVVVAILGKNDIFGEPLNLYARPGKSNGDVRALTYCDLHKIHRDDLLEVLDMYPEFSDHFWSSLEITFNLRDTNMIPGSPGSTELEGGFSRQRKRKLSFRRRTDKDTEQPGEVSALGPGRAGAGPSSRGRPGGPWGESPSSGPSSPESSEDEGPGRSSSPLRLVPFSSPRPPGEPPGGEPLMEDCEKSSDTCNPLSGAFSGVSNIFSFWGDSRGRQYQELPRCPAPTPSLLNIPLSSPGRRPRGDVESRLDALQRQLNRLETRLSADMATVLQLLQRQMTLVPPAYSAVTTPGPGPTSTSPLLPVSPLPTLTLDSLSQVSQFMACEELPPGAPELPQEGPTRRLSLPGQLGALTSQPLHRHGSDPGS
As for `CC1=C(C(=O)OC(C)C)C(C)C(C(=O)OC(C)C)=C(C)N1`, the “hERG current change (%, negative = inhibition) at 1uM” value is given as -9.49%. With `COc1ccc(C2CCCN2C(=S)Nc2cccc(Cl)c2)cc1OC` (centres unmarked), the “hERG current change (%, negative = inhibition) at 1uM” value stood at 3.97%. To `O=C(CN1CCN(Cc2ccccc2)CC1)NCc1ccc(Cl)cc1` belongs -13.4%. In the case of `Cc1cccc(OCCCC(=O)NCc2ccco2)c1`, the “hERG current change (%, negative = inhibition) at 1uM” value is on record as 8.14%. To `COc1ccc(C2C(=O)N(C3CCCCCC3)CC(=O)N2Cc2ccccc2)cc1OC` (centres unmarked) belongs 10.6%. In the case of `CC(C)CC(OC(=O)c1cccs1)C(=O)NCc1ccco1` (centres unmarked), the “hERG current change (%, negative = inhibition) at 1uM” value is recorded as 21.8%. In the case of `COc1ccc2nc(NC(=O)c3cccc(N4C(=O)CCC4=O)c3)sc2c1`, the “hERG current change (%, negative = inhibition) at 1uM” value came out at 2.6%. With `Cc1nc2nc(C)c(CCC(=O)NC3CCCCC3)c(C)n2n1`, the “hERG current change (%, negative = inhibition) at 1uM” value was 9.07%. The value for `CC(C)CN1C(Nc2ccccc2)=NC[C@@H]1C` was 14%; that for `CN1COc2ccc3ccccc3c2C1` was 12.4%. Consider `O=C(NCc1ccccc1)C1Nc2ccc(OC(F)(F)F)cc2C2C=CCC12` (centres unmarked), for which the “hERG current change (%, negative = inhibition) at 1uM” value was 6.53%. In the case of `COC(=O)N1CCCc2cc(C)ccc21`, the “hERG current change (%, negative = inhibition) at 1uM” value is 9.69%. As for `COc1ccc(S(=O)(=O)NCc2ccccn2)cc1NC(=O)c1ccc(C)cc1`, the “hERG current change (%, negative = inhibition) at 1uM” value was 6.98%. The value for `O=C(CCC(=O)N1CCSc2ccccc21)NCc1ccc(Cl)cc1` was 5.74%; that for `COc1ccc2c(c1OC)CN1CCc3cc4c(cc3[C@@H]1[C@@H]2O)OCO4` was 11.2%; that for `CCOC(=O)Cn1c(S(=O)(=O)Cc2cccc(F)c2)nc(-c2ccccc2)c1-c1ccccc1` was 1.88%. Consider `Cc1cc(C)nc(SCc2nnc(SCC(=O)Nc3nccs3)n2Cc2ccco2)n1`, for which the “hERG current change (%, negative = inhibition) at 1uM” value was -4.17%. Regarding `Oc1ccc(Br)cc1C=Nc1ccc2c3c(cccc13)CC2`, the “hERG current change (%, negative = inhibition) at 1uM” value is on record as 14.1%. On to `COc1ccc(NC(=O)c2cc(S(=O)(=O)N3CCc4ccccc43)cn2C)cc1OC`, for which the “hERG current change (%, negative = inhibition) at 1uM” value was determined as 10.6%. As for `COc1ccc(NC(=O)CCC(=O)c2ccc(Cl)cc2)cn1`, the “hERG current change (%, negative = inhibition) at 1uM” value is given as 0.313%. With `COCc1ccc(CN2CCC(N3CCC(C(=O)N4CCCC4)CC3)CC2)o1`, the “hERG current change (%, negative = inhibition) at 1uM” value is recorded as 10.6%. On to `NS(=O)(=O)c1ccc(NC(=O)c2c(Cl)cccc2Cl)cc1`, for which the “hERG current change (%, negative = inhibition) at 1uM” value is 3.56%. For the compound `COc1ccc(Cl)cc1NC(=S)N(Cc1ccccc1C)CC1CCC(C(=O)O)CC1` (centres unmarked), the “hERG current change (%, negative = inhibition) at 1uM” value is listed as 22%. On to `Nc1nnc(CCC2CCCCC2)s1`, for which the “hERG current change (%, negative = inhibition) at 1uM” value is reported as 14.9%. `O=C(NCCSc1ccc(Cl)cc1)c1ccc(CN2CCOCC2)cc1`: the “hERG current change (%, negative = inhibition) at 1uM” value is listed as -12.2%. As to `COc1cc(S(=O)(=O)N(Cc2ccccc2)CC2CCCO2)ccc1-n1cnnn1` (centres unmarked), the “hERG current change (%, negative = inhibition) at 1uM” value was 8.58%. `Cc1c(NC(=O)CSc2nc(N)cc(N)n2)c(=O)n(-c2ccccc2)n1C`: the “hERG current change (%, negative = inhibition) at 1uM” value was determined as 14.6%. For the compound `O=C1NC(=O)C(=Cc2ccc3ccccc3c2)C(=O)N1`, the “hERG current change (%, negative = inhibition) at 1uM” value stood at 14%.

For `O=C(O)C(=O)O.O=[N+]([O-])c1ccc(S(=O)(=O)N2CCN(Cc3c[nH]c4ccccc34)CC2)cc1`, the “hERG current change (%, negative = inhibition) at 1uM” value was -10.1%. On to `Cc1c2cnn(CC(=O)NCCN3CCOCC3)c(=O)c2c(C)n1Cc1ccccc1`, for which the “hERG current change (%, negative = inhibition) at 1uM” value is on record as 9.26%. For the compound `CCOc1cc(C(=O)OCC(=O)N(C)c2ccccc2)cc(OCC)c1OCC`, the “hERG current change (%, negative = inhibition) at 1uM” value is 9.29%. With `O=C(Nc1ccc(N2CCOCC2)c(Cl)c1)c1cccc(F)c1`, the “hERG current change (%, negative = inhibition) at 1uM” value came out at 1.27%. For the compound `O=C(COc1cc(F)ccc1[N+](=O)[O-])Nc1cccc(S(=O)(=O)NC2=NCCC2)c1`, the “hERG current change (%, negative = inhibition) at 1uM” value was determined as 12.1%. Consider `COc1ccc(CNC(=O)c2coc(=O)c3ccccc23)c(OC)c1`, for which the “hERG current change (%, negative = inhibition) at 1uM” value was -7.38%. To `CC(C)(C)NC(=O)CCc1ncc(C(F)(F)F)cc1Cl` belongs 5.5%; to `Cc1ccc(C(CNC(=O)c2ccco2)N2CCN(C)CC2)cc1` (centres unmarked), 9.31%. The value for `Cc1c(NC(=O)C(C)OC(=O)C(NC(=O)c2ccco2)C(C)C)c(=O)n(-c2ccccc2)n1C` (centres unmarked) was -16%. The value for `Cc1ccc(NC(=O)CSc2nc3ccccc3nc2N2CCOCC2)cc1` was 4.56%; that for `O=[N+]([O-])c1ccc(CP(=O)(c2ccccc2)c2ccccc2)cc1` was 8.71%. Consider `COc1ccc2nc(SCC(=O)NC3CCCCC3)[nH]c2c1`, for which the “hERG current change (%, negative = inhibition) at 1uM” value is on record as 12%. For `COc1ccc(CCNC(=O)Cn2cnc3c2c(=O)n(C)c(=O)n3C)cc1OC`, the “hERG current change (%, negative = inhibition) at 1uM” value was found to be 8.26%. On to `CC1CCN(C(C(=O)Nc2ccc3c(c2)OCO3)c2ccccc2)CC1` (centres unmarked), for which the “hERG current change (%, negative = inhibition) at 1uM” value is reported as 5.73%. With `COc1ccc(-n2c(=O)[nH]c3ccccc3c2=O)cc1`, the “hERG current change (%, negative = inhibition) at 1uM” value was 13.5%. Take `O=C(CCc1c[nH]c2ccccc12)N1CCN(c2ccc(O)cc2)CC1`: the “hERG current change (%, negative = inhibition) at 1uM” value is recorded as 4.41%.
